Measurements published in the RNAGym collection of RNA variant scans (doi:10.7554/elife.90254).
The source gives no read counts; variants with many changes may rest on few reads.

B1: LINE1-mini (parent)
chain: GGCAGAGCUCAACACAGCGUGGCAAAGUGGCUGUGGCUAGACUGCC

Variants of: B1
Experiment: self-cleavage, relative activity (ratio to wild type); higher = more cleavage; in vitro, sequencing; the parent is a self-cleaving ribozyme

| Variant | self-cleavage |
| --- | --- |
| U9C C10U A26U G36A C37A | 0.02 |
| U9C C10U C13A U34C C42G | 0.04 |
| U9C C10U C18U G19U A24G G27U | 0.02 |
| U9C C10U C23U A25G | 0.01 |
| U9C C10U G17A C18G C31G G36U | 0.02 |
| U9C C10U G21U | 0.04 |
| U9C C10U G21U A25C G29U U38G | 0.01 |
| U9C C10U G33U C37A | 0.04 |
| U9C C10U U34A C37U A41U C42U G44A | 0.01 |
| U9C C13A A14U U20C | 0.03 |
| U9C C13A C15G G36U G40A A41U | 0.02 |
| U9C C13A C42U | 0.01 |
| U9C C13A G33C U38A | 0.02 |
| U9C C13A G35U A41U | 0.2 |
| U9C C13G A16G C23A C42A | 0 |
| U9C C13G A24U G30C C46U | 0.02 |
| U9C C13G C15U G17A A24C A25U | 0.01 |
| U9C C13G C31G C42A | 0.01 |
| U9C C13G G19C U28C | 0.01 |
| U9C C13G G27U U32C | 0.02 |
| U9C C13U C15A C31U C42U | 0.01 |

| Variant | self-cleavage |
| --- | --- |
| U9C C13U C15A G30A U38G | 0.01 |
| U9C C13U C18U A41G | 0.02 |
| U9C C13U C37A C42A | 0.01 |
| U9C C13U G27C C42A | 0 |
| U9C C13U G30A A39C | 0.01 |
| U9C C13U G30C G33C U34G | 0.01 |
| U9C C13U G35A C46G | 0.01 |
| U9C C15A G17U | 0.02 |
| U9C C15A G27U G30C C31A | 0.03 |
| U9C C15A G29A U32C C46G | 0.03 |
| U9C C15A G33U C42U | 0.01 |
| U9C C15A U20G C23U G30U C42A G44C | 0.02 |
| U9C C15A U32G | 0.03 |
| U9C C15G A24G U28G | 0.02 |
| U9C C15G G22A U28A | 0.03 |
| U9C C15U A24G C46A | 0.02 |
| U9C C15U A26U | 0.02 |
| U9C C15U C18G | 0.03 |
| U9C C15U C45U | 0.03 |
| U9C C15U G35U | 0.01 |
| U9C C18A A41U | 0 |

| Variant | self-cleavage |
| --- | --- |
| U9C C18A G27U | 0.04 |
| U9C C18A G30A C46A | 0.02 |
| U9C C18G A26G U28C U38C A39C C46U | 0.01 |
| U9C C18G G21U | 0.02 |
| U9C C18G G22U C23U | 0.02 |
| U9C C18G G29A | 0.02 |
| U9C C18G U20A C42A | 0 |
| U9C C18G U20G G33C C42A U43A | 0 |
| U9C C18U A26C | 0.02 |
| U9C C18U G21U U43A C46U | 0.04 |
| U9C C18U U28A A41U | 0.06 |
| U9C C18U U32A | 0 |
| U9C C23A A24C C37A | 0.02 |
| U9C C23G C37G | 0.02 |
| U9C C23U C31A | 0.02 |
| U9C C23U G27C G30U | 0.01 |
| U9C C23U G36A | 0.02 |
| U9C C23U G40A | 0.02 |
| U9C C31A C42U | 0.02 |
| U9C C31A C45A | 0 |
| U9C C31U C42U G44U | 0.02 |

| Variant | self-cleavage |
| --- | --- |
| U9C C37A G40U | 0.05 |
| U9C C37U A39U | 0 |
| U9C C37U G44C C46G | 0.03 |
| U9C C42A G44U | 0 |
| U9C C45U C46U | 0.01 |
| U9C G17A A26U | 0.02 |
| U9C G17A C18G G36U | 0.03 |
| U9C G17A G35A A39U G44A C46U | 0.03 |
| U9C G17A U38G | 0.01 |
| U9C G17C C45G | 0.02 |
| U9C G17C C46A | 0.01 |
| U9C G17C G36C U38A C46U | 0.01 |
| U9C G17C U43C | 0.01 |
| U9C G17U A24U | 0.03 |
| U9C G17U G30A C45G | 0.07 |
| U9C G17U G40U C46A | 0.32 |
| U9C G17U U32A | 0.08 |
| U9C G19A A24U G35A | 0.03 |
| U9C G19A C37G | 0 |
| U9C G19A C45G | 0.04 |
| U9C G19A G21U C37G | 0 |
